# Reference: publication PMC12136788
# The list shows a part of the results.
# T1: UNK ZnF1-3 (human, UniProt Q9C0B0 31-174)
# T1 sequence: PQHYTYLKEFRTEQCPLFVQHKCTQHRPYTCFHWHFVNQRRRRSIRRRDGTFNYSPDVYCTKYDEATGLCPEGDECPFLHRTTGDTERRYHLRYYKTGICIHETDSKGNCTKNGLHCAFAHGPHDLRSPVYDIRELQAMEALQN
# B1: chrX:140365796:140365797:-_ENSMUSG00000031285_ENSMUST00000033642|mus_mus|mus_mus_mus_hu_False|8_8 (ssRNA)
# RNA: GGGAGUUCUACAGUCCGACGAUCCUUCUCAUUACUCAGUGCCUGCAAGGUUCUGGUUCGGUAGAAGCUACAGUGGGCGCUGUGAGUGGGGCUAGGCAACCCAUUCAUCCGGGAGCCUCGCAUGUUCCUAGAUGCUUUAUCUCUCAACAGAGGAUUGAGCAUCA
# B2: chr17:61655871:61655872:+_ENSG00000136485_ENST00000310827|hu_mus|FALSE|FALSE (ssRNA)
# RNA: GGGAGUUCUACAGUCCGACGAUCGGUAGGGUACGGGUGGUCAAAGGUGUUUCGGCAAAUAAACUCUGAACUCUCCUCAUCUAAACCAACAAGCUGAACCUUGUUGUUGUACUCUUCCACGAAGCUGCCCAGCGCCAGGCGAAACAACAGAGGAUUGAGCAUCA
# B3: 52792555_52792675_286_CDS_ENSMUSG00000020954_ENSMUST00000169503|mouse|control|control (ssRNA)
# RNA: GGGAGUUCUACAGUCCGACGAUCGGCCGGAGGACCCCCGCCGCCCGGCGCUCCGUUCGCUCCCGGCGGCAGGCUCAGGUUCCCCCCGGGUCCCUGCUGCGGCCGGGGAGGGGCUGCCAUCCCCUGGCCGCCGCCGCCGCCUCCCAACAGAGGAUUGAGCAUCA
# B4: chrX:71549400:71549401:+_ENSMUSG00000019087_ENSMUST00000019231|mus_hu|mus_mus_mus_hu_False|38_78 (ssRNA)
# RNA: GGGAGUUCUACAGUCCGACGAUCGCAGUAGGAAGAGGGAAGCUCUUCAGUCCAGUGGUCACAAAACUGGGAAAGCAACAACACGGACACCGUCCCACCUCAAUUCCCCCCACUGGCACAGGGUCACACAAUCUGGGUCAAAGACAACAGAGGAUUGAGCAUCA
# B5: 40207750_40207870_2679_CDS_ENSMUSG00000036822_ENSMUST00000042575|mouse|control|control (ssRNA)
# RNA: GGGAGUUCUACAGUCCGACGAUCCCUCCUCUUGUGUUUUGUCUCUCUGUCUGAUGAUCUGCUAUCUGAAAAGCUGUCACUCUCAUUUUUAUAACUGCCAUCCAAUUUUGAUUUUUGGUAAUGACUGUCCUUCCCUUUGGAAGUCAACAGAGGAUUGAGCAUCA
# B6: chr10:86154994:86154995:-_ENSMUSG00000020048_ENSMUST00000020238|mus_mus|motif|central (ssRNA)
# RNA: GGGAGUUCUACAGUCCGACGAUCCGCCUUGGUGUCUGGUAGAAGAUAUCCUGACCGAAGUGUUGCCGUUUCAAACAAAACGGCAGCAAGAUCCAUGACUGUCUUGUCAUCUUCAUCUUCCUUAAUCCGCCGCAACAUGUCUCUCAACAGAGGAUUGAGCAUCA
# B7: 88792706_88792826_418_ncRNA_ENSMUSG00000033152_ENSMUST00000141401|mouse|control|control (ssRNA)
# RNA: GGGAGUUCUACAGUCCGACGAUCCGGGAGGGGCGCGGGGCCGUGGCGUCGGGCAGUCUCGCGCCCGUGGCCCGGCGCUCACAGGUGAGUGUCCUCCUCGAACACGUCCGAGUCCUCAGGGUCGCGUUUGCUGCCCAUGAGCGCCAACAGAGGAUUGAGCAUCA
# B8: chr14:102359341:102359342:+_ENSG00000078304_ENST00000445439|hu_hu|motif|central (ssRNA)
# RNA: GGGAGUUCUACAGUCCGACGAUCUUUUAGUGGUAAGGCAAAUCCAUUAAUUAUACUUCCCAAUAUUUCCAGUAACUCUGCGGUGCCAUUAUGAUGCUCUGUUUCAUAAAUAAACCUAUAAAAUAUAUUAUUUAUCUGUUUUCUCAACAGAGGAUUGAGCAUCA
# B9: chr13:108516651:108516652:-_ENSMUSG00000032846_ENSMUST00000105097|mus_hu|FALSE|FALSE (ssRNA)
# RNA: GGGAGUUCUACAGUCCGACGAUCAUCAUGCGCCAUUAAGAAGGUCUCUCGGGCUUUGCUGAGGAACUCUAUAAACUCACUAUAGUGCCGAGGACUGAUGUGUGUGAGCCGUGAGUGCGUUGUGUUGAUGUAGGCCCCGAUCGUCAACAGAGGAUUGAGCAUCA
# B10: chr2:91460361:91460362:+_ENSMUSG00000040549_ENSMUST00000099716|mus_hu|motif|central (ssRNA)
# RNA: GGGAGUUCUACAGUCCGACGAUCAUACACUAGGCCUGCUGAGGCCAUUUUAAACUAUGAGGACUUCUAGUUUAGUAAACGGAAGCUGCAGGGUGCCGGGGGAGUGGGGCAGCUUCAUUUGCGACUGCUCUUUAUUCUCUCCAGCAACAGAGGAUUGAGCAUCA
# B11: chr4:17845017:17845018:+_ENSG00000109805_ENST00000514176|hu_mus|hu_hu_hu_mus_False|68_88 (ssRNA)
# RNA: GGGAGUUCUACAGUCCGACGAUCGCUCUCUUAACUUGUAUCUUCAUGAGAAAUUGGUGCAAGGUUAGUUUACUUUUUCUGUAGCGCAGCUGUUUUGGCUCGUCUGGGUAAUCUCAUCUUCAUUUCUGAUGGUGGUUCAUGAUCCAACAGAGGAUUGAGCAUCA
# B12: chr2:61705333:61705334:-_ENSG00000082898_ENST00000401558|hu_hu|FALSE|FALSE (ssRNA)
# RNA: GGGAGUUCUACAGUCCGACGAUCGUUGUCGACAAGCGACAGCACACACACACAAAAACAAAAAGAACUGUGUAAAAAUAACUAACUGUGUUCCCAUAUUUUUGAAGUCGCUUUACAAUGGGAUGAUAUGCACAUGAUCUUGCUCAACAGAGGAUUGAGCAUCA
# B13: chr1:39494564:39494565:+_ENSG00000168653_ENST00000372967|hu_hu|hu_hu_hu_mus_True|8_48 (ssRNA)
# RNA: GGGAGUUCUACAGUCCGACGAUCAUGCAUUCGCCUCAUCGUUUUGUACCGAAGCAAGCACUCUUCGAAGUCAUCGAACUCUAUCUUGCACUCUUUCUUCGCCCGGGUCCCACCGAUCCCGUGUGCACAUUCUAUCCACUCUUUCAACAGAGGAUUGAGCAUCA
# B14: chr8:110352747:110352748:+_ENSG00000120533_ENST00000521662|hu_mus|hu_hu_hu_mus_True|18_18 (ssRNA)
# RNA: GGGAGUUCUACAGUCCGACGAUCCAGGGCUCUGCCUUUUGGAGUGAUUUCAGCCACCAAGUCAUCAACAGUAACGUGUUCUAGUCCUUUUUCUUUAAUUACCUCUUUACAGUGUGCCUUCAACUGAUCCUUCCAGCCGCACUCCAACAGAGGAUUGAGCAUCA
# B15: chr2:59185810:59185811:+_ENSMUSG00000026991_ENSMUST00000151452|mus_hu|FALSE|FALSE (ssRNA)
# RNA: GGGAGUUCUACAGUCCGACGAUCCCCAUCCUUUUUAUAAAUGCUCCGGAGGUCCCGAUAUUGCCAUAAUGUAUUCAAGACCUGGGCUGCUGCCUUCACCACUUUCAGAGAUGAUCUGUCGCCCCUGCCUUUGGUUAUGUUCACCAACAGAGGAUUGAGCAUCA
# B16: 28393741_28401348_240_CDS_ENSMUSG00000004056_ENSMUST00000051356|mouse|control|control (ssRNA)
# RNA: GGGAGUUCUACAGUCCGACGAUCAGGGGCCUCGGGCCUCUCCUUAUACCCAAUGAAAGAUCCAUCACUCUUCAGAAGGAAGUACCGUGGCCUCCAGGUCUUGAUGUAUUCACCACGUUUGUGGAGCCAGCCUUCUUUGAUGACCAACAGAGGAUUGAGCAUCA
# B17: chr1:225611761:225611762:-_ENSG00000143815_ENST00000272163|hu_mus|motif|central (ssRNA)
# RNA: GGGAGUUCUACAGUCCGACGAUCCCAGGCCAUCGGCCUCUGACCACUUCACCCUCAACAAACUUCCUACUUGGCAUUUUCGGAAAUUAGUCUGGCCGCGCUCCGGCGGGAACUCCAGCCACUCCAGGACAGUCACCAGCAGCCCAACAGAGGAUUGAGCAUCA
# B18: chr3:144353948:144353949:-_ENSMUSG00000037062_ENSMUST00000163279|mus_mus|FALSE|FALSE (ssRNA)
# RNA: GGGAGUUCUACAGUCCGACGAUCAAAACUCCAAAGCCAAGAGACCCUAGUAAGGCCUAGUAUUUAAGUCAUCUGAUUCCUAUUGGGCAGCAAGGUAAAAAGGAGUUUUUACUUUAUUCUUUGGCUAUUGUAUCUAAUAAAUGACAACAGAGGAUUGAGCAUCA
# B19: chr3:132390928:132390929:+_ENSG00000081307_ENST00000264991|hu_mus|motif|central (ssRNA)
# RNA: GGGAGUUCUACAGUCCGACGAUCACUGGCUGCGCAGACGCCUUCUCGUUUCAGGGUUUUUUCAUCAAUAUUUGAAGCAACGGCAAGUGGUGGCGCACACGCGAAGCAAGCCGACUCUCCAGGGAUCAUCAGCUGGAUGUGCCCCAACAGAGGAUUGAGCAUCA
# B20: 34195510_34199789_1269_3pUTR_ENSMUSG00000021936_ENSMUST00000111945|mouse|control|control (ssRNA)
# RNA: GGGAGUUCUACAGUCCGACGAUCCUAAAGGAGACGGCUGCCCUCUUAUGACUCCAUUCUUAGUUCGUUCCUCCAAAUCCAUUACCUCCUUGUAUAUCAGUUCUUUCCACUCCUCUAUUGUGUGCUCCCUCUCAUCUAACUGCUCAACAGAGGAUUGAGCAUCA
# B21: chr12:111890518:111890519:-_ENSG00000204842_ENST00000389154|hu_hu|motif|central (ssRNA)
# RNA: GGGAGUUCUACAGUCCGACGAUCUUGGAUGUUACAAGAAAUCAACAUAUAUAUUUUAAAAACAAAAUAAAUGAAAUUCGGGUUUUCUGUGCUUCCAGUUGGUAGAAGCAGUAGAAGGGAGGAGGGAAUUUGGCCUUUCGGUUCCAACAGAGGAUUGAGCAUCA
# B22: chr14:76904430:76904431:+_ENSMUSG00000022010_ENSMUST00000022587|mus_mus|mus_mus_mus_hu_True|1_88 (ssRNA)
# RNA: GGGAGUUCUACAGUCCGACGAUCUGCAGCCAAAAACACCCUCGUGGCGGGAGGGAGGGAACACCAGCAGCCUUGUAUAAGCUAGAUAAAAUCUUCUGGCUUUCCGCAGCCCAGGGAGAAACAGAAAACGGCAGCCCUCGAGUGCAACAGAGGAUUGAGCAUCA
# Target: T1, UNK ZnF1-3
# Assay: nsRBNS (natural sequence RNA bind-n-seq); RBNS binding buffer (assumed for nsRBNS): 25 mM Tris pH 7.5, 150 mM KCl, 3 mM MgCl2, 0.01% Triton X-100, 500 ug/ml BSA, 20 U/ml SUPERase-In, 4 C; UNK is unkempt and MSI1 is Musashi-1; names of the RNAs are library labels; protein concentration not given here; high values mean tight binding
row,Binder,binding signal [enrichment R]
1,B1,0.664
2,B2,0.971
3,B3,0
4,B4,1.9
5,B5,0.437
6,B6,0.493
7,B7,0.489
8,B8,0.358
9,B9,1.13
10,B10,0.451
11,B11,0.397
12,B12,0.638
13,B13,0.572
14,B14,0.856
15,B15,0.873
16,B16,0.949
17,B17,0.981
18,B18,1.33
19,B19,1.08
20,B20,0.625
21,B21,1.46
22,B22,1.68
